This is one part of the list. At the low end of the ranking the order means little.

This experiment has as its target T1, GST-Rok-C97-191 (UniProt O34857).
T1 sequence: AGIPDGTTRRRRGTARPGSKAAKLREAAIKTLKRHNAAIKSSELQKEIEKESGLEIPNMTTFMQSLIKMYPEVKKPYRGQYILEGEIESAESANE
The experiment can be described thus: protein binding microarray.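 Further: rank score from −0.5 (least bound) to 0.5 (best bound).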 Conditions: Rok is a gene silencer of Bacillus subtilis; high values mean tight binding; most listed sequences are background and not binding sites; double strand, one strand shown.
In the case of CGAGCCTC, the binding signal is -0.276 E-score. GACATATC came in with a binding signal of 0.122 E-score. The result for AGCGTGGC reads -0.312 E-score; that for ACCGTCCG, 0.0225 E-score. The sequence AGAGCGAC gave a binding signal of -0.247 E-score. To AGAAATGA belongs 0.0703 E-score; to TAAAAAAA, 0.328 E-score. To AAATAAAC belongs 0.155 E-score; to AATTCCGT, -0.00528 E-score. In turn, CTCGGCCC showed a binding signal of -0.364 E-score.

As to GAACGGGC, the binding signal was -0.217 E-score.

CATCGATG returned a binding signal of 0.068 E-score. To AATGATAT belongs 0.249 E-score; to AGTGAGCC, -0.123 E-score; to AAGAGGGA, -0.0544 E-score. The result for CACGCATA reads 0.0976 E-score; that for CCTCATGC, -0.169 E-score. In turn, CGAAGGTC showed a binding signal of -0.245 E-score. The result for GCGTTAAA reads -0.218 E-score; that for ACTAATCA, 0.133 E-score; that for AACTAGGT, 0.318 E-score. The result for GTTAACGA reads 0.0428 E-score; that for GTAGGTAA, 0.264 E-score. To AGCGCCGG belongs -0.146 E-score. Take AAATCGAT: the binding signal amounted to 0.073 E-score.

In turn, AACCTAAC displayed a binding signal of -0.0809 E-score. The result for ATGTGGAG reads 0.102 E-score; that for AGCCCGCC, -0.233 E-score.

AACCGGGT: the binding signal is -0.146 E-score.

AGCAATAG: the binding signal is 0.244 E-score. The result for GTCGACGA reads -0.206 E-score.

ACGTGCTA returned a binding signal of 0.106 E-score.

ACCCAGAG returned a binding signal of -0.137 E-score. To CCGTCTAA belongs -0.0284 E-score. CCGATTGC showed a binding signal of 0.116 E-score. The result for CAATATCC reads -0.00246 E-score.

Sequence CGTGTGAC displayed a binding signal of -0.206 E-score. The result for TACCGCGA reads 0.0284 E-score; that for AGCGATCG, -0.201 E-score; that for AGGTAAGA, 0.108 E-score. In the case of CTCTGTAA, the binding signal turned out to be 0.0493 E-score. The result for ACCAGCGT reads -0.127 E-score. To AAATGAAA belongs 0.0941 E-score; to AGCCTGGC, -0.293 E-score; to CAGCTCGG, -0.0345 E-score. To GCCCGCAA belongs -0.245 E-score; to AAGCTGTC, 0.0421 E-score.

Turning to CTCATCCA, the binding signal was 0.00151 E-score. The result for AATATTAT reads 0.21 E-score; that for CTGTACGA, 0.094 E-score. To CCTCTTAC belongs -0.0943 E-score. To GCTAGAGA belongs 0.121 E-score. In turn, GGAGTAGA yielded a binding signal of 0.102 E-score. In the case of AGTCGATA, the binding signal is 0.212 E-score. To AGATCTAG belongs 0.202 E-score.

Take TATAAAGA: the binding signal was -0.131 E-score. To ACAATCAC belongs -0.0201 E-score. The result for ATAAGCTG reads -0.0096 E-score. To ACCATCTA belongs 0.31 E-score; to ACAAGTAC, 0.25 E-score; to TCAGAACA, -0.0454 E-score. The sequence CCAACTCA had a binding signal of -0.0447 E-score. Sequence GATACATA yielded a binding signal of 0.377 E-score.

The sequence GCCAGGCA had a binding signal of -0.21 E-score. To GCAGAGTA belongs -0.0358 E-score; to AACAGGCC, -0.276 E-score; to CGGTAATA, 0.315 E-score.

AACGTAAA had a binding signal of 0.0617 E-score. ATCTGAAC showed a binding signal of 0.0923 E-score.

In turn, GGACTTTA yielded a binding signal of -0.19 E-score. The result for GGGCTTGA reads -0.304 E-score.

In turn, ACGTAAAG yielded a binding signal of 0.0169 E-score. The result for GTGTCCCA reads -0.165 E-score; that for AACGTAAG, -0.0867 E-score; that for ACTGCTTG, 0.117 E-score.

CGTCGGCA displayed a binding signal of -0.336 E-score. In the case of AATGTGCC, the binding signal is 0.114 E-score. The result for GCGAAAAA reads 0.135 E-score; that for TCAGAAGA, -0.0615 E-score. The result for ACTGGTTG reads -0.0208 E-score; that for ACATATGT, 0.4 E-score. To ATAGGCGG belongs -0.17 E-score; to ACAAGTAG, 0.274 E-score; to GGTGCTTA, -0.1 E-score. In turn, CATTTCCG returned a binding signal of -0.0941 E-score. The result for GCCGAGGA reads -0.272 E-score; that for ACGCCGGC, -0.345 E-score.

Consider AACCTGCG, for which the binding signal is -0.0596 E-score.

ACTAGCTA had a binding signal of 0.397 E-score. GCCCCAGC had a binding signal of -0.368 E-score. To CTCGCCGC belongs -0.2 E-score; to CATCCGGG, -0.117 E-score; to GCCAAGAA, -0.0724 E-score. The result for GCGCTTCC reads -0.148 E-score; that for TACAACCA, 0.0162 E-score. In turn, AGACTGCT yielded a binding signal of -0.066 E-score. To GGCTGGCA belongs -0.299 E-score; to CATATCCC, 0.0856 E-score; to GCCGTAAA, -0.0195 E-score. To CCAGAACC belongs -0.0982 E-score; to CCGGCGTC, -0.273 E-score. The result for ATAACCAT reads 0.199 E-score.

CATTCAGA registered a binding signal of -0.0179 E-score. The result for ATAGGCGC reads -0.0965 E-score; that for GACGTAGA, 0.0341 E-score; that for CCAACTGG, -0.142 E-score. To AATTAGCC belongs 0.0609 E-score; to AAAAGGAA, -0.0215 E-score; to ACAAGACC, -0.248 E-score. GCATTCAA displayed a binding signal of -0.0287 E-score.

With ATGTCCCC, the binding signal was -0.198 E-score. AAGTAATA had a binding signal of 0.29 E-score. To AGGAAACC belongs -0.266 E-score; to AGTAGGAT, 0.283 E-score. On to GAGATACC, for which the binding signal was 0.0658 E-score.

Turning to AAAGCCTC, the binding signal is -0.162 E-score. To GACCCTTA belongs -0.0728 E-score.

CGCAACCA came in with a binding signal of -0.0628 E-score.

The sequence CACCCTCC showed a binding signal of -0.00354 E-score. The result for CGTTTCAC reads -0.234 E-score. The result for AGTGCGAG reads -0.186 E-score; that for CCTATCTC, 0.0249 E-score. Consider AAAGGCAG, for which the binding signal is -0.0965 E-score. Sequence AGTCTGAA displayed a binding signal of -0.139 E-score. To CCAGCTGC belongs -0.0489 E-score.

For AGCAGTGC, the binding signal is -0.228 E-score. To CACATCTA belongs 0.151 E-score; to AGCGTGTC, -0.00288 E-score. The result for AGTCGTAT reads -0.0181 E-score; that for AACTCTTC, -0.0797 E-score. The sequence AAACTGCA gave a binding signal of 0.0449 E-score. For the sequence AGTACTGC, the binding signal was 0.129 E-score.

In turn, AAGGATAC returned a binding signal of -0.0403 E-score. The result for ATACACGC reads 0.216 E-score; that for GAACGGCA, -0.112 E-score; that for AGGGAGAT, -0.0598 E-score. AGTATTAG came in with a binding signal of 0.295 E-score. To CAAGTTAA belongs 0.0265 E-score; to CACGGGAC, -0.308 E-score; to GTAGAATA, 0.305 E-score. To CAGAATAG belongs 0.00183 E-score; to CCAAGTTC, -0.0242 E-score; to GTCAATCA, -0.125 E-score. To ACTAATTG belongs 0.189 E-score; to ATATTACG, 0.174 E-score. The sequence CCCCAATC returned a binding signal of -0.228 E-score.

Turning to GACCATCC, the binding signal was -0.118 E-score. To CACAGTCG belongs -0.1 E-score. To ACCTCTCC belongs -0.177 E-score. To AGTAAGAG belongs -0.16 E-score; to ACAGTCCC, -0.126 E-score; to GAGGATAC, -0.102 E-score. Sequence GTGCGTAA registered a binding signal of 0.00713 E-score. AAGCGGAG displayed a binding signal of -0.174 E-score. To CCATCAGG belongs -0.0317 E-score. For the sequence ACGCGCTG, the binding signal was -0.118 E-score. The result for AAAGCGTG reads -0.172 E-score; that for ACATACTG, 0.15 E-score; that for ATTATGTG, 0.169 E-score. The result for CCATGGGC reads -0.255 E-score. The result for AAGAGGAG reads -0.144 E-score; that for CCCCGTTA, -0.201 E-score; that for ACAGCTAT, 0.172 E-score. Take GATTAACC: the binding signal is -0.127 E-score. To GGGCGACA belongs -0.13 E-score; to CCGGGCCA, -0.276 E-score; to ATAGATTC, 0.34 E-score. The result for CAGGCTGC reads -0.206 E-score.

As for ATTTGGGA, the binding signal is -0.159 E-score. Consider CGGATCCC, for which the binding signal is -0.0495 E-score. The result for CCGCAGAA reads -0.0471 E-score; that for GCCCATTA, -0.125 E-score.

Values taken from paper PMC6212790.
